Laboratory results from the supplement of paper PMC12230231.

These sequences were tested on SIVsab (simian immunodeficiency virus of sabaeus monkeys), single-cycle GFP reporter, in CRFK cells (assay: enrichment among uninfected cells over input (fold); higher = stronger restriction). Settings: library: human / rhesus combinations.
Protocol: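 Pools of CRFK cells expressing variants of the TRIM5α v1 loop were challenged with the single-cycle reporter, sorted by GFP and sequenced; mean of two replicates.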

Row | Sequence | enrichment
1 | MASGILVNVKEEVTCPICLELLTQPLSLDCGHSFCQACLTANHKKSMLDKGESSCPVCRISYQPENIRPNRHVANIVEKLREVKLSPEGQKVDHCARHGEKLLLFCQEDGKVICWLCERSQEHRGHHTFLTEEVAREYQVKLQAALEMLRQKQQEAEELEADIREEKASWKTQIQYDKTNVLADFEQLRDILDWEESNELQNLEKEEEDILKSLTNSETEMVQQTQSLRELISDLEHRLQGSVMELLQGVDGVIKRTENVTLKKPETFPKNQRRVFRAPDLKGMLEVFRELTDVRRYWVDVTVAPNNISCAVISEDKRQVSSPKPQIIYGARGTRYTFQTFTNFNYCTGILGSQSITSGKHYWEVDVSKKTAWILGVCAGFQPDAMCNIEKNENYQPKYGYWVIGLEEGVKCSAFQDSSFHTPSVPFIVPLSVIICPDRVGVFLDYEACTVSFFNITNHGFLIYKFSHCSFSQPVFPYLNPRKCGVPMTLCSPSS [human TRIM5α, 330-340 = GARGTRYTFQTFT] | 0.636 ± 0.24
2 | MASGILVNVKEEVTCPICLELLTQPLSLDCGHSFCQACLTANHKKSMLDKGESSCPVCRISYQPENIRPNRHVANIVEKLREVKLSPEGQKVDHCARHGEKLLLFCQEDGKVICWLCERSQEHRGHHTFLTEEVAREYQVKLQAALEMLRQKQQEAEELEADIREEKASWKTQIQYDKTNVLADFEQLRDILDWEESNELQNLEKEEEDILKSLTNSETEMVQQTQSLRELISDLEHRLQGSVMELLQGVDGVIKRTENVTLKKPETFPKNQRRVFRAPDLKGMLEVFRELTDVRRYWVDVTVAPNNISCAVISEDKRQVSSPKPQIIYQARGTLYTFPTFVNFNYCTGILGSQSITSGKHYWEVDVSKKTAWILGVCAGFQPDAMCNIEKNENYQPKYGYWVIGLEEGVKCSAFQDSSFHTPSVPFIVPLSVIICPDRVGVFLDYEACTVSFFNITNHGFLIYKFSHCSFSQPVFPYLNPRKCGVPMTLCSPSS [human TRIM5α, 330-340 = QARGTLYTFPTFV] | 0.0725 ± 0.1
3 | MASGILVNVKEEVTCPICLELLTQPLSLDCGHSFCQACLTANHKKSMLDKGESSCPVCRISYQPENIRPNRHVANIVEKLREVKLSPEGQKVDHCARHGEKLLLFCQEDGKVICWLCERSQEHRGHHTFLTEEVAREYQVKLQAALEMLRQKQQEAEELEADIREEKASWKTQIQYDKTNVLADFEQLRDILDWEESNELQNLEKEEEDILKSLTNSETEMVQQTQSLRELISDLEHRLQGSVMELLQGVDGVIKRTENVTLKKPETFPKNQRRVFRAPDLKGMLEVFRELTDVRRYWVDVTVAPNNISCAVISEDKRQVSSPKPQIIYGAPGTRYTFQSLVNFNYCTGILGSQSITSGKHYWEVDVSKKTAWILGVCAGFQPDAMCNIEKNENYQPKYGYWVIGLEEGVKCSAFQDSSFHTPSVPFIVPLSVIICPDRVGVFLDYEACTVSFFNITNHGFLIYKFSHCSFSQPVFPYLNPRKCGVPMTLCSPSS [human TRIM5α, 330-340 = GAPGTRYTFQSLV] | 0.258 ± 0.11
4 | MASGILVNVKEEVTCPICLELLTQPLSLDCGHSFCQACLTANHKKSMLDKGESSCPVCRISYQPENIRPNRHVANIVEKLREVKLSPEGQKVDHCARHGEKLLLFCQEDGKVICWLCERSQEHRGHHTFLTEEVAREYQVKLQAALEMLRQKQQEAEELEADIREEKASWKTQIQYDKTNVLADFEQLRDILDWEESNELQNLEKEEEDILKSLTNSETEMVQQTQSLRELISDLEHRLQGSVMELLQGVDGVIKRTENVTLKKPETFPKNQRRVFRAPDLKGMLEVFRELTDVRRYWVDVTVAPNNISCAVISEDKRQVSSPKPQIIYQAPGTRYTFQSLTNFNYCTGILGSQSITSGKHYWEVDVSKKTAWILGVCAGFQPDAMCNIEKNENYQPKYGYWVIGLEEGVKCSAFQDSSFHTPSVPFIVPLSVIICPDRVGVFLDYEACTVSFFNITNHGFLIYKFSHCSFSQPVFPYLNPRKCGVPMTLCSPSS [human TRIM5α, 330-340 = QAPGTRYTFQSLT] | 0.177 ± 0.04

Same assay, conditions: library: insertions and deletions

Row | Sequence | enrichment
5 | MASGILVNVKEEVTCPICLELLTQPLSLDCGHSFCQACLTANHKKSMLDKGESSCPVCRISYQPENIRPNRHVANIVEKLREVKLSPEGQKVDHCARHGEKLLLFCQEDGKVICWLCERSQEHRGHHTFLTEEVAREYQVKLQAALEMLRQKQQEAEELEADIREEKASWKTQIQYDKTNVLADFEQLRDILDWEESNELQNLEKEEEDILKSLTNSETEMVQQTQSLRELISDLEHRLQGSVMELLQGVDGVIKRTENVTLKKPETFPKNQRRVFRAPDLKGMLEVFRELTDVRRYWVDVTVAPNNISCAVISEDKRQVSSPKPQIIYGARGTRYVNFNYCTGILGSQSITSGKHYWEVDVSKKTAWILGVCAGFQPDAMCNIEKNENYQPKYGYWVIGLEEGVKCSAFQDSSFHTPSVPFIVPLSVIICPDRVGVFLDYEACTVSFFNITNHGFLIYKFSHCSFSQPVFPYLNPRKCGVPMTLCSPSS [human TRIM5α, 3-codon deletion at 337] | 0.797 ± 0.11
6 | MASGILVNVKEEVTCPICLELLTQPLSLDCGHSFCQACLTANHKKSMLDKGESSCPVCRISYQPENIRPNRHVANIVEKLREVKLSPEGQKVDHCARHGEKLLLFCQEDGKVICWLCERSQEHRGHHTFLTEEVAREYQVKLQAALEMLRQKQQEAEELEADIREEKASWKTQIQYDKTNVLADFEQLRDILDWEESNELQNLEKEEEDILKSLTNSETEMVQQTQSLRELISDLEHRLQGSVMELLQGVDGVIKRTENVTLKKPETFPKNQRRVFRAPDLKGMLEVFRELTDVRRYWVDVTVAPNNISCAVISEDKRQVSSPKPQIIYGARGTRYQTFVNFNYCTGILGCTGILGSQSITSGKHYWEVDVSKKTAWILGVCAGFQPDAMCNIEKNENYQPKYGYWVIGLEEGVKCSAFQDSSFHTPSVPFIVPLSVIICPDRVGVFLDYEACTVSFFNITNHGFLIYKFSHCSFSQPVFPYLNPRKCGVPMTLCSPSS [human TRIM5α, 6-codon duplication at 345] | 0.858 ± 0.86
7 | MASGILVNVKEEVTCPICLELLTQPLSLDCGHSFCQACLTANHKKSMLDKGESSCPVCRISYQPENIRPNRHVANIVEKLREVKLSPEGQKVDHCARHGEKLLLFCQEDGKVICWLCERSQEHRGHHTFLTEEVAREYQVKLQAALEMLRQKQQEAEELEADIREEKASWKTQIQYDKTNVLADFEQLRDILDWEESNELQNLEKEEEDILKSLTNSETEMVQQTQSLRELISDLEHRLQGSVMELLQGVDGVIKRTENVTLKKPETFPKNQRRVFRAPDLKGMLEVFRELTDVRRYWVDVTVAPNNISCAVISEDKRQVSSPKPQIIYGARGTRYQYGARGTRYQTFVNFNYCTGILGSQSITSGKHYWEVDVSKKTAWILGVCAGFQPDAMCNIEKNENYQPKYGYWVIGLEEGVKCSAFQDSSFHTPSVPFIVPLSVIICPDRVGVFLDYEACTVSFFNITNHGFLIYKFSHCSFSQPVFPYLNPRKCGVPMTLCSPSS [human TRIM5α, 9-codon duplication at 329] | 0.41 ± 0.17
8 | MASGILVNVKEEVTCPICLELLTQPLSLDCGHSFCQACLTANHKKSMLDKGESSCPVCRISYQPENIRPNRHVANIVEKLREVKLSPEGQKVDHCARHGEKLLLFCQEDGKVICWLCERSQEHRGHHTFLTEEVAREYQVKLQAALEMLRQKQQEAEELEADIREEKASWKTQIQYDKTNVLADFEQLRDILDWEESNELQNLEKEEEDILKSLTNSETEMVQQTQSLRELISDLEHRLQGSVMELLQGVDGVIKRTENVTLKKPETFPKNQRRVFRAPDLKGMLEVFRELTDVRRYWVDVTVAPNNISCAVISEDKRQVSSPKPQQIIYGARGTRYQTFVNFNYCTGILGSQSITSGKHYWEVDVSKKTAWILGVCAGFQPDAMCNIEKNENYQPKYGYWVIGLEEGVKCSAFQDSSFHTPSVPFIVPLSVIICPDRVGVFLDYEACTVSFFNITNHGFLIYKFSHCSFSQPVFPYLNPRKCGVPMTLCSPSS [human TRIM5α, 1-codon duplication at 326] | 0.827 ± 0.11
9 | MASGILVNVKEEVTCPICLELLTQPLSLDCGHSFCQACLTANHKKSMLDKGESSCPVCRISYQPENIRPNRHVANIVEKLREVKLSPEGQKVDHCARHGEKLLLFCQEDGKVICWLCERSQEHRGHHTFLTEEVAREYQVKLQAALEMLRQKQQEAEELEADIREEKASWKTQIQYDKTNVLADFEQLRDILDWEESNELQNLEKEEEDILKSLTNSETEMVQQTQSLRELISDLEHRLQGSVMELLQGVDGVIKRTENVTLKKPETFPKNQRRVFRAPDLKGMLEVFRELTDVRRYWVDVTVAPNNISCAVISEDKRQVSSPKPQIIYGKPQIIYGARGTRYQTFVNFNYCTGILGSQSITSGKHYWEVDVSKKTAWILGVCAGFQPDAMCNIEKNENYQPKYGYWVIGLEEGVKCSAFQDSSFHTPSVPFIVPLSVIICPDRVGVFLDYEACTVSFFNITNHGFLIYKFSHCSFSQPVFPYLNPRKCGVPMTLCSPSS [human TRIM5α, 7-codon duplication at 324] | 0.0908 ± 0.0062
10 | MASGILVNVKEEVTCPICLELLTQPLSLDCGHSFCQACLTANHKKSMLDKGESSCPVCRISYQPENIRPNRHVANIVEKLREVKLSPEGQKVDHCARHGEKLLLFCQEDGKVICWLCERSQEHRGHHTFLTEEVAREYQVKLQAALEMLRQKQQEAEELEADIREEKASWKTQIQYDKTNVLADFEQLRDILDWEESNELQNLEKEEEDILKSLTNSETEMVQQTQSLRELISDLEHRLQGSVMELLQGVDGVIKRTENVTLKKPETFPKNQRRVFRAPDLKGMLEVFRELTDVRRYWVDVTVAPNNISCAVISEDKRQVSSPKPQIIYGARGTRYQTFVFNYCTGILGSQSITSGKHYWEVDVSKKTAWILGVCAGFQPDAMCNIEKNENYQPKYGYWVIGLEEGVKCSAFQDSSFHTPSVPFIVPLSVIICPDRVGVFLDYEACTVSFFNITNHGFLIYKFSHCSFSQPVFPYLNPRKCGVPMTLCSPSS [human TRIM5α, 1-codon deletion at 341] | 0.254 ± 0.011
11 | MASGILVNVKEEVTCPICLELLTQPLSLDCGHSFCQACLTANHKKSMLDKGESSCPVCRISYQPENIRPNRHVANIVEKLREVKLSPEGQKVDHCARHGEKLLLFCQEDGKVICWLCERSQEHRGHHTFLTEEVAREYQVKLQAALEMLRQKQQEAEELEADIREEKASWKTQIQYDKTNVLADFEQLRDILDWEESNELQNLEKEEEDILKSLTNSETEMVQQTQSLRELISDLEHRLQGSVMELLQGVDGVIKRTENVTLKKPETFPKNQRRVFRAPDLKGMLEVFRELTDVRRYWVDVTVAPNNISCAVISEDKRQVSSPKPQIIYGARGFVNFNYCTGILGSQSITSGKHYWEVDVSKKTAWILGVCAGFQPDAMCNIEKNENYQPKYGYWVIGLEEGVKCSAFQDSSFHTPSVPFIVPLSVIICPDRVGVFLDYEACTVSFFNITNHGFLIYKFSHCSFSQPVFPYLNPRKCGVPMTLCSPSS [human TRIM5α, 5-codon deletion at 334] | 0.225 ± 0.23
12 | MASGILVNVKEEVTCPICLELLTQPLSLDCGHSFCQACLTANHKKSMLDKGESSCPVCRISYQPENIRPNRHVANIVEKLREVKLSPEGQKVDHCARHGEKLLLFCQEDGKVICWLCERSQEHRGHHTFLTEEVAREYQVKLQAALEMLRQKQQEAEELEADIREEKASWKTQIQYDKTNVLADFEQLRDILDWEESNELQNLEKEEEDILKSLTNSETEMVQQTQSLRELISDLEHRLQGSVMELLQGVDGVIKRTENVTLKKPETFPKNQRRVFRAPDLKGMLEVFRELTDVRRYWVDVTVAPNNISCAVISEDKRQVSSPKPQIIYGARGTRYQTFVNTRYQTFVNFNYCTGILGSQSITSGKHYWEVDVSKKTAWILGVCAGFQPDAMCNIEKNENYQPKYGYWVIGLEEGVKCSAFQDSSFHTPSVPFIVPLSVIICPDRVGVFLDYEACTVSFFNITNHGFLIYKFSHCSFSQPVFPYLNPRKCGVPMTLCSPSS [human TRIM5α, 8-codon duplication at 334] | 0.217 ± 0.08

± gives the standard deviation of the averaged measurements. Restriction of a single-cycle SIVsab GFP reporter by TRIM5α v1-loop variants in CRFK cells. Human variants: read share among cells still uninfected after two challenges over input, higher = gained restriction. Rhesus variants: share among infected cells over input, higher = lost restriction. Reporter dose not given per row. No active / inactive call per row; the paper calls a change when both replicates lie above its controls (mean + 2 SD of stop or wild-type variants, or the top frameshift score). Residues outside the varied loop are taken from Swiss-Prot. The paper reads the human single-substitution scores as noise; they and the rhesus combinations repeat poorly (rank correlation 0.3 to 0.4), indel scores repeat only for the top variants, rhesus substitutions well (0.9).
